Reference: the supplement of paper PMC10369915
This is one part of the list. No stated cut-off is given here; in the data, active = 3.2 or more and inactive = the rest. Only a few entries rise above the background.

Legend:
Test in all cases: enrichment score (SH2-bound / input frequency) (ratio); bacterial display of known human phosphotyrosine sites (pTyr-Var adds point mutants) read by sequencing; higher = stronger binding; tyrosines were phosphorylated by kinases first
Conditions in all cases: peptide library: pTyr-Var
SHP2 C-SH2 domain E139D = biological target: SHP2 C-SH2 domain E139D
[1] = biological target: SHP2 C-SH2 domain wild-type
SHP2 N-SH2 domain L43F = biological target: SHP2 N-SH2 domain L43F
SHP2 N-SH2 domain T42A = biological target: SHP2 N-SH2 domain T42A
SHP2 N-SH2 domain T52S = biological target: SHP2 N-SH2 domain T52S
[2] = biological target: SHP2 N-SH2 domain wild-type
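Further: displayed peptides selected on beads carrying the immobilized SH2 domain, with library peptides lacking any tyrosine serving as negative controls.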

| Binder | enrichment score (SHP2 C-SH2 domain E139D) | enrichment score [1] | enrichment score (SHP2 N-SH2 domain L43F) | enrichment score (SHP2 N-SH2 domain T42A) | enrichment score (SHP2 N-SH2 domain T52S) | enrichment score [2] |
| --- | --- | --- | --- | --- | --- | --- |
| YPQARYHWLVL [APTX_Y214_K211Q] | inactive: 2 | inactive: 1.92 | inactive: 1.99 | inactive: 1.78 | inactive: 1.95 | inactive: 1.88 |
| GTVRDYPDFNP [ANXA3_Y15_S19N] | inactive: 0.674 | inactive: 0.7 | inactive: 0.672 | inactive: 0.669 | inactive: 0.645 | inactive: 0.682 |
| NRKGKYFNVER [ANAPC4_Y469] | inactive: 0.326 | inactive: 0.387 | inactive: 0.406 | inactive: 0.383 | inactive: 0.45 | inactive: 0.539 |
| GTATAYLCRVK [ALPL_Y117_G120R] | inactive: 0.729 | inactive: 0.64 | inactive: 0.63 | inactive: 0.65 | inactive: 0.646 | inactive: 0.644 |
| FLTQHYDAIPQ [ANG_Y38_K41I] | inactive: 1.19 | inactive: 0.901 | inactive: 1.05 | inactive: 0.898 | inactive: 0.948 | inactive: 0.942 |
| FLTQHHDAKPQ [ANG_Y38_Y38H] | inactive: 1.36 | inactive: 1.22 | inactive: 1.43 | inactive: 1.16 | inactive: 1.31 | inactive: 1.21 |
| ETKGDYEKILV [ANXA1_Y335] | inactive: 0.703 | inactive: 1.08 | inactive: 1.15 | inactive: 0.913 | inactive: 1.11 | inactive: 1.4 |
| DSRRDYVSQFE [APOA1_Y53_G50R] | inactive: 0.794 | inactive: 0.612 | inactive: 0.669 | inactive: 1.18 | inactive: 0.495 | inactive: 0.577 |
| IFRASYFRKGG [ALK_Y1282_YF] | inactive: 0.312 | inactive: 0.314 | inactive: 0.363 | inactive: 0.353 | inactive: 0.482 | inactive: 0.276 |
| ESKKHYGYSLY [ANXA3_Y295_F291S] | inactive: 0.621 | inactive: 0.504 | inactive: 0.552 | inactive: 0.578 | inactive: 0.491 | inactive: 0.587 |
| HILQLYRCREE [ALPK3_Y342_T338I] | inactive: 0.25 | inactive: 0.156 | inactive: 0.22 | inactive: 0.277 | inactive: 0.303 | inactive: 0.42 |
| RRLEPYGENFN [APOA4_Y310_V307L] | inactive: 0.925 | inactive: 0.776 | inactive: 0.949 | inactive: 0.64 | inactive: 0.756 | inactive: 0.669 |
| YPKARYRWLVL [APTX_Y214_H215R] | inactive: 1.12 | inactive: 0.765 | inactive: 0.823 | inactive: 0.695 | inactive: 0.853 | inactive: 0.788 |
| HYPDVYAWEQL [ALX3_Y181_R183W] | inactive: 1.21 | inactive: 1.02 | inactive: 1.53 | inactive: 1.3 | inactive: 1.22 | inactive: 1.06 |
| FLTQHYDAEPQ [ANG_Y38_K41E] | inactive: 1.06 | inactive: 0.837 | inactive: 0.93 | inactive: 0.684 | inactive: 0.878 | inactive: 0.843 |
| MKDLTYASLCF [ALOX5_Y446] | inactive: 1.06 | inactive: 1.42 | inactive: 2.11 | inactive: 2.04 | inactive: 1.55 | inactive: 1.7 |
| WASGIYYVPKG [APBB1IP_Y340_R335W] | inactive: 1.4 | inactive: 1.44 | inactive: 1.21 | inactive: 1.19 | inactive: 1.47 | inactive: 1.33 |
| KRLAVYQAGAR [APOE_Y180] | inactive: 1.14 | inactive: 0.862 | inactive: 0.919 | inactive: 0.812 | inactive: 0.8 | inactive: 0.92 |
| ITLPIYTKGSE [ANK2_Y1455_E1458G] | inactive: 0.903 | inactive: 0.958 | inactive: 1.1 | inactive: 0.85 | inactive: 0.86 | inactive: 1.03 |

| Binder | enrichment score (SHP2 C-SH2 domain E139D) | enrichment score [1] | enrichment score (SHP2 N-SH2 domain L43F) | enrichment score (SHP2 N-SH2 domain T42A) | enrichment score (SHP2 N-SH2 domain T52S) | enrichment score [2] |
| --- | --- | --- | --- | --- | --- | --- |
| MSLRSYGSWEG [APC_Y96_R99W] | inactive: 0.194 |  | inactive: 0.639 | inactive: 1.34 | inactive: 0.411 | inactive: 1 |
| RGEKQYLAAPL [ALOX12_Y295] | inactive: 0.599 | inactive: 0.48 | inactive: 0.698 | inactive: 0.532 | inactive: 0.587 | inactive: 1.01 |
| VFPIDYFFPPQ [AR_Y552_L548F_YF] | inactive: 1.8 | inactive: 1.61 | inactive: 1.78 | inactive: 1.92 | inactive: 1.99 | inactive: 1.85 |
| HFPDVYAREQL [ALX3_Y181_YF] | inactive: 0.98 | inactive: 0.931 | inactive: 0.965 | inactive: 0.626 | inactive: 1.04 | inactive: 0.858 |
| RGEKQYLATPL [ALOX12_Y295_A298T] | inactive: 0.826 | inactive: 0.55 | inactive: 0.54 | inactive: 0.479 | inactive: 0.589 | inactive: 0.767 |
| RAWPPYTVAAD [ANKZF1_Y572_R569W] | inactive: 0.864 | inactive: 0.887 | inactive: 1.18 | inactive: 0.491 | inactive: 0.608 | inactive: 0.954 |
| VLVSQYEKLDA [AMZ2_Y26_N30D] | inactive: 1.03 | inactive: 0.677 | inactive: 0.916 | inactive: 0.955 | inactive: 1.04 | inactive: 0.84 |
| ENRLDYGSAWA [AR_Y395_P392R] | inactive: 0.605 | inactive: 0.481 | inactive: 0.63 | inactive: 0.453 | inactive: 0.562 | inactive: 0.597 |
| SFKNKYGMVAQ [APOB_Y276_YF] | inactive: 0.768 | inactive: 0.59 | inactive: 0.722 | inactive: 0.623 | inactive: 0.696 | inactive: 0.738 |
| FPKAHYHWLVL [APTX_Y214_R213H_YF] | active: 4.21 | active: 3.54 | active: 4.06 | active: 3.46 | active: 3.26 | active: 3.96 |
| VIKDKYPKVRF [APTX_Y209_A212V_YF] | inactive: 1.46 | inactive: 1.31 | inactive: 1.3 | inactive: 0.989 | inactive: 1.28 | inactive: 1.37 |
| FPKVRYHWLVL [APTX_Y214_A212V_YF] | inactive: 1.97 | inactive: 2 | inactive: 1.66 | inactive: 1.42 | inactive: 1.79 | inactive: 2.11 |
| LASLIYNFVLF [AQP6_Y231] | active: 3.26 | inactive: 3.16 | inactive: 2.73 | inactive: 2.76 | inactive: 2.35 | inactive: 2.88 |
| APSHAYHGGVL [ANO1_Y981] | inactive: 1.13 | inactive: 0.844 | inactive: 0.879 | inactive: 0.877 | inactive: 0.784 | inactive: 1.17 |
| APSHAYHRGVL [ANO1_Y981_G983R] | inactive: 1.2 | inactive: 1.05 | inactive: 1 | inactive: 0.93 | inactive: 1.08 | inactive: 1.1 |
| HSLLQYGGSAN [ANK1_Y624_R619H] | inactive: 0.919 | inactive: 0.887 | inactive: 0.806 | inactive: 0.635 | inactive: 0.892 | inactive: 1.1 |
| SRASYYRKGGC [ALK_Y1283_Y1278S] | inactive: 0.402 | inactive: 0.26 | inactive: 0.289 | inactive: 0.227 | inactive: 0.313 | inactive: 0.24 |
| VIKDKYPKARY [APTX_Y209] | inactive: 1.3 | inactive: 1.52 | inactive: 1.34 | inactive: 1.29 | inactive: 1.28 | inactive: 1.42 |
